# Data taken from paper PMC4336329 (PLoS ONE, 2015).
# Among all 310,000 compounds or so, about 2,200 (0.71%) showed an effect of 50% or more. Effects have a minus sign here. This is one part of the list.
# Target: human ether-à-go-go-related gene (hERG) potassium channel (human, UniProt Q12809)
# Test: primary screen, population patch clamp on CHO cells stably expressing hERG
# Chain of human ether-à-go-go-related gene (hERG) potassium channel (Q12809 whole entry, looked up): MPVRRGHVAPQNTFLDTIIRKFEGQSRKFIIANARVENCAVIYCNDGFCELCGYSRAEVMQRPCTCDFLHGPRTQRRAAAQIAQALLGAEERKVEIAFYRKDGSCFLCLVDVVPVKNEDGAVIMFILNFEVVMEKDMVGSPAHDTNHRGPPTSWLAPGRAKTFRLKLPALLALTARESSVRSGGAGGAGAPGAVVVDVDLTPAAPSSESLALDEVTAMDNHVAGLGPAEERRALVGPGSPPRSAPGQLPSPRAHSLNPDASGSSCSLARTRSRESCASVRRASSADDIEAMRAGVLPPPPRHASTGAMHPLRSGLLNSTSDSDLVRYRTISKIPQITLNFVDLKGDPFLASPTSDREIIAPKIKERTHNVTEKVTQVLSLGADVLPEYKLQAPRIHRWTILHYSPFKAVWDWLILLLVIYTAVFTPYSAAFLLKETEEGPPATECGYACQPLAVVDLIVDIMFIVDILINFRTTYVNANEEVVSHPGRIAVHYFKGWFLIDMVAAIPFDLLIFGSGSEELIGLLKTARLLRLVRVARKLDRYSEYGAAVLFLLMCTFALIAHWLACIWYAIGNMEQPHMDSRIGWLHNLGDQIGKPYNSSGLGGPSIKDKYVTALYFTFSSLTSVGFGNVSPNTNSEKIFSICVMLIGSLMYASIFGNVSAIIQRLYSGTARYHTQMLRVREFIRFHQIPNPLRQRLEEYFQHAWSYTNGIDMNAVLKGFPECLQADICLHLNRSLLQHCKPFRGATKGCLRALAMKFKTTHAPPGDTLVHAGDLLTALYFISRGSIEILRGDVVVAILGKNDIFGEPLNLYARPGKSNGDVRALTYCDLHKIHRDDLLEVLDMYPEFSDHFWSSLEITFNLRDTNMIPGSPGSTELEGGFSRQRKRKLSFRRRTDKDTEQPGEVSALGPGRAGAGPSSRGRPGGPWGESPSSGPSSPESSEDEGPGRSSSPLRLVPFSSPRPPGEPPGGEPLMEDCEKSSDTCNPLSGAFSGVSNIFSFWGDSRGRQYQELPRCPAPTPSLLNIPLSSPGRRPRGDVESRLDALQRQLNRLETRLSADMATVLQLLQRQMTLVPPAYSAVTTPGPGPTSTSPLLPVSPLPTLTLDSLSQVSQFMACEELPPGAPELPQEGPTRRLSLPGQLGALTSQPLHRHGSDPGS
row,SMILES,"hERG current change (%, negative = inhibition) at 1uM [%]"
1,CCCOc1ccc(C(=O)O/N=C(\CC)c2ccc(C)cc2)cc1,9.24
2,COC(=O)c1c(NC(=O)CSc2nnc(Cn3nnc4ccccc43)n2C)sc(C)c1C,-1.33
3,O=C(COC(=O)c1ccccc1Nc1ccccc1)Nc1ccccc1,15.5
4,CC(NC(=S)NC(=O)c1ccccc1Br)c1ccccc1 (stereo not shown),14.5
5,CC(=O)c1ccccc1OCCOc1ncnc2sccc12,3.78
6,COC(=O)C[C@H]1c2ccccc2S(=O)(=O)N1C(C)C,12
7,CCn1nc(C)c(NC(=O)c2cnn3c(C(F)F)cc(-c4ccccc4)nc23)c1C,10.3
8,Cc1cccc(CS(=O)(=O)c2nnc([C@H](Cc3ccccc3)NC(=O)OC(C)(C)C)o2)c1,2.29
9,COCCCNC(=O)CSc1nc2cc(S(=O)(=O)N3CCCCC3)ccc2o1,11.5
10,CCN(CC)S(=O)(=O)c1ccc2c(c1)nc(CCC(=O)O)n2C,6.09
11,C/C(CC(=O)Nc1ccc2c(c1)OCCO2)=N\NC(=O)C(=O)Nc1ccccc1C,3.74
12,COc1ccc(-n2c(-c3cccc(C)c3[N+](=O)[O-])n[nH]c2=S)cc1,7.34
13,CSc1ccccc1C(=O)C1CCCN(C(=O)c2ccc(N3CCOCC3)cc2)C1 (stereo not shown),6.64
14,O=S(=O)(NCc1ccc(Cl)cc1)c1cnc[nH]1,6.55
15,Cc1cc(C)n(C(=O)COc2ccc(Cl)cc2Cl)n1,6.55
16,C=CCn1c(SCC(=O)Nc2nncs2)nnc1-c1ccco1,13
17,CSCCC(NS(=O)(=O)c1ccc(C)cc1)C(=O)N1CCN(C(C)=O)CC1 (stereo not shown),10.6
18,O=C(Cc1ncc(C(F)(F)F)cc1Cl)Nc1ccc(F)cc1,13
19,Cc1ccc(-c2csc3nc(SCC(=O)Nc4ccc(Cl)c(C(=O)O)c4)[nH]c(=O)c23)cc1,12.1
20,Cc1noc(C)c1C(=O)N1CCN(S(=O)(=O)c2cccs2)CC1,16.6
21,Cc1ccc(OCC(=O)Nc2ccccc2C(=O)N2CCCC2)cc1,-2.29
22,CC(C)(C)c1ccc(C(=O)n2cnc3ccccc32)cc1,16.8
23,CCCCN(CC)C(=O)Cc1ccccc1OC,18
24,CN(C)C(=O)Cn1nc(-c2ccccc2)c2ccccc2c1=O,9.36
25,Cc1cccc(NC(=O)CSc2nnc(NC(=O)c3ccc(S(=O)(=O)N4CCOCC4)cc3)s2)c1C,6.13
26,COC(=O)c1c(C(=O)OC)c(-c2ccc(F)cc2)n2c1CS(=O)C2 (stereo not shown),20
27,Fc1ccccc1-c1nc(-c2ccc(Cl)cc2)no1,4.28
28,Cc1cc(NS(=O)(=O)c2ccc(NC(=O)CCc3ccccc3)cc2)no1,10.8

row,SMILES,"hERG current change (%, negative = inhibition) at 1uM [%]"
1,Cn1nccc1C(=O)N1CCN(c2cccc(Cl)c2)CC1,21.2
2,COc1ccc(C)cc1N(CC(=O)Nc1cccnc1)S(=O)(=O)c1ccccc1,0.471
3,CC(=O)c1c(C)nc(-c2cccc([N+](=O)[O-])c2)n1O,6.98
4,Cc1ccc(-c2csc(N3CCC[C@@H]3C(=O)NCCn3c(-c4ccncc4)nc4ccccc43)n2)cc1,8.69
5,COc1ccccc1N(Cc1ccccc1)S(=O)(=O)c1cccc(C(=O)Nc2ncccc2C)c1,3.97
6,CC(=O)c1ccccc1N(C(=O)c1ccco1)C(C(=O)NC1CCCC1)c1ccc(N2CCOCC2)cc1 (stereo not shown),8.73
7,CCN(Cc1nc(-c2ccccc2)no1)C(=O)c1ccco1,5.46
8,O=C(O)CC(Cn1[nH]nnc1=S)c1ccccc1 (stereo not shown),-1.3
9,c1ccc(/N=C2\N=C(Nc3ccccn3)c3ccccc32)nc1,-6.9
10,NS(=O)(=O)c1cccc(NC(=O)CSc2nnnn2-c2ccccc2)c1,13.9
11,CN(CC(=O)Nc1cccc(F)c1)C(=O)c1ccc(N2CCCCC2)c([N+](=O)[O-])c1,6.4
12,COc1cccc(NC(=O)CCS(=O)(=O)c2cccs2)c1,15.4
13,COc1ccc(-c2cc(C(F)(F)F)nc(SCCC(=O)N3CCCC3)n2)cc1,7.56
14,COc1cccc(CN(C)C(=O)CCc2nnc(-c3ccsc3)o2)c1,9.53
15,CCc1cc(-c2[nH]ncc2-c2nc3ccccc3n2C)c(O)cc1O,-11.1
16,NC(=O)CC(NC(=O)c1ccc(Br)cc1)c1ccc(N2CCN(c3ccccn3)CC2)c([N+](=O)[O-])c1 (stereo not shown),4.26
17,COc1ccc2cc3cc(C(=O)N4CCN(c5ccccc5)CC4)oc3nc2c1,7.44
18,CCN(c1ccccc1)S(=O)(=O)c1ccc(Cl)c(NC(=O)CSc2nnc(C)s2)c1,10.5
19,Cc1ccsc1/C=C1/SC(=O)N(CC(=O)N2CCOCC2)C1=O,5.75
20,CCSc1nc(O)c(C2OC(=O)c3c2ccc(OC)c3OC)c(=O)n1-c1ccccc1 (stereo not shown),11.7
21,CCOC(=O)Cn1cc(/C=C(\C#N)C(=O)N2CCOCC2)c2ccccc21,5.91
22,Cn1cc(CN2CCCC(C(=O)c3ccc(-c4ccccc4)cc3)C2)cn1 (stereo not shown),-1.82
23,Cc1cc(Br)ccc1S(=O)(=O)NCc1ccccc1,7.15
24,Cc1cc(OC(C)C(=O)NCC2CCC(C(=O)O)CC2)c2c(C)c(Cc3ccccc3)c(=O)oc2c1 (stereo not shown),-13.1
25,O=c1cc(-c2ccccc2)nc(SCc2ccc(Cl)cc2)[nH]1,12.8
26,CCOc1ccccc1Nc1nc(N)nc(CSc2nccc(C)n2)n1,12.8
27,CSc1nncc(/C(C)=N\Nc2ccccc2C)n1,4.15
